ChEMBL document CHEMBL1201862, “PubChem BioAssay data set” (2004)
Where “and” joins values, the source holds several entries; their conditions need not be identical. Equal values may be shown once.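 Method: 48-hour compound exposure of cells in 96-well plates, five concentrations, linear interpolation of endpoints. GI50 marks 50% less growth.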 Calls of active or inactive are those of the source. Rule as the data show it: active = GI50 up to about 1.1 µM and inactive = higher.

Tested on: NCI-H322M
Test: inhibition of tumour cell growth, NCI panel, 48 h

Row | Compound | GI50
1 | CC1=C(O)C(=O)C=C2C1=CC=C1[C@@]2(C)CC[C@@]2(C)C3C[C@@H](C)C(=O)[C@@H](O)[C@]3(C)CC[C@]12C (some centres undefined) | inactive: 13.8 µM
2 | COc1ccc(C(=O)CCN(C)C)c2ccccc12 | inactive: > 74 µM
3 | O=C(COc1ccc(Cl)cc1)N1N=C(c2ccc(Cl)cc2)CC1(O)c1ccccc1 (centres undefined) | inactive: 17 µM
4 | O=C1/C(=C/c2ccccc2)CN(C(=O)Oc2ccc(Cl)cc2)C/C1=C\c1ccccc1 | inactive: 18.5 µM
5 | O=C(COc1ccc(OCC(=O)N2C(=O)CS/C2=N\c2ccccc2)cc1)N1C(=O)CS/C1=N\c1ccccc1 | inactive: 19.9 µM
6 | CC(C)(C)OC(=O)NCCCCCCC(=O)Cc1ccccc1 | inactive: > 100 µM
7 | COC(=O)[C@@H]1CC(C(C[N+](=O)[O-])c2ccc(O[Si](C)(C)C(C)(C)C)cc2)C(=O)N1C(=O)OC(C)(C)C (some centres undefined) | inactive: > 100 µM
8 | N#CC(C#N)C1CN2CCC1CC2 (centres undefined) | inactive: > 100 µM
9 | C=CCSC1=N/C(=C\c2ccc(OC)cc2)C(=O)N1CC=C | inactive: 54.5 µM
10 | Nc1nc(-c2ccccc2)cc(-c2ccc(OCc3ccccc3)cc2O)n1 | inactive: 53 µM
11 | NC1=NN(c2ccccc2)C2(O)c3ccncc3C3=NN(c4ccccc4)C(=O)C132 (centres undefined) | inactive: > 100 µM
12 | CN(C)CCOc1ccc(-c2c(Oc3ccc(Cl)cc3)c(=O)oc3ccccc23)cc1 | inactive: 6.78 µM
13 | NC12Oc3cc(O)cc(O)c3C1(c1ccc(Cl)cc1)c1c(O)cc(O)cc1O2 (centres undefined) | inactive: 71.9 µM
14 | CC1(C)[N+]([O-])=[N+]([O-])C1(C)O (centres undefined) | inactive: > 100 µM
15 | O=C1C(Br)=C(Br)C(=O)c2ccccc21 [2,3-Dibromo-1,4-naphthoquinone] | inactive: 28.3 µM and inactive: 16.9 µM
16 | CCN(CC)/N=C\c1c2ccccc2cc2ccccc12 | inactive: > 100 µM
17 | Cc1cc2ccccc2n2c1nc1ccc(O)cc12 | inactive: > 10 µM
18 | CC(=O)CSCc1ccccn1 | inactive: > 100 µM
19 | CCC(C(=O)c1ccc(OC)c(OC)c1)N(C(=O)C(F)(F)F)C(C)c1ccccc1 (centres undefined) | inactive: > 100 µM
20 | N#Cc1c(-c2ccc(Cl)cc2)c(C#N)c(=O)n(NS(=O)(=O)c2ccccc2)c1-c1ccccc1 | inactive: > 25 µM
21 | CC(C)(C)c1cc(C(C)(C)C)c(SC2OC(CO)C(O)C(O)C2O)c(O)c1O (centres undefined) | inactive: 11.6 µM
22 | Cc1cc(C)c(S(=O)(=O)N(CCCCCCN)OCCCN)c(C)c1 | inactive: 14.9 µM

Row | Compound | GI50
23 | COc1ccc(C2S/C(=C\c3ccccc3O)C(=O)N2NC(=O)Cc2ccccc2)cc1 (centres undefined) | inactive: > 100 µM
24 | Cc1ccc(S(=O)(=O)n2c3c(c4ccccc42)CCN2C[C@H]([C@H](C)Br)CC[C@@H]32)cc1 | inactive: > 100 µM
25 | CCCCCCn1c(SC)nc(COC(=O)NC)c1COC(=O)NC | inactive: 17.9 µM
26 | NC(=O)C(N)Cc1ccc(O)cn1 (centres undefined) | inactive: > 100 µM
27 | O=C1CN(c2ccc(Cl)cc2)C(=O)CN1NCNN1CC(=O)N(c2ccc(Cl)cc2)CC1=O | inactive: > 100 µM
28 | CCCc1c(O)nc(Nc2nc3ccccc3[nH]2)[nH]c1=O | inactive: > 100 µM
29 | COc1ccccc1OCC(=N/NC(=O)c1ccncc1)/N=C/c1ccncc1 | inactive: > 100 µM
30 | COc1c(O)cc(O)c2c(=O)cc(-c3ccccc3)oc12 [WOGONIN] | inactive: 55.8 µM
31 | C#C[C@]1(O)CC[C@H]2[C@@H]3CCC4=C/C(=N\OCCN5CCCC5)CC[C@]4(C)[C@H]3CC[C@@]21C | inactive: 14.3 µM
32 | COC(=O)CCC1(NS(=O)(=O)c2ccc(C)cc2)CCC(C(C)(C)C)CC1 (centres undefined) | inactive: 25.1 µM
33 | CC1=CC(=C(c2ccc(N)c(C)c2)c2ccc(N)c(C)c2)C=CC1=N | inactive: 3.78 µM
34 | CC(=O)NC(CCCCN(Cc1ccccc1)C(=O)N(C)N=O)C(=O)NCc1ccccc1 (centres undefined) | inactive: > 100 µM
35 | COc1ccc(/C=C2\CN(C)Cc3c2nc(O)c(C#N)c3-c2ccc(OC)cc2)cc1 | inactive: > 100 µM
36 | CCN(c1cccc(NC(=S)Nc2ccccc2N(CC)c2cc(-c3ccccc3)no2)c1)c1cc(-c2ccccc2)no1 | inactive: > 100 µM
37 | NC1=CN(Cc2ccccc2)C2=N/C(=C\c3ccccc3O)C(=O)N12 | inactive: > 100 µM
38 | CCNc1ncnc2sc(SCc3ccccc3)nc12 | inactive: > 100 µM
39 | CC1=N/C(=C\c2c(O)ccc3ccccc23)C(=O)O1 | inactive: > 100 µM
40 | CCCCCCCCCCCC1CCCC(C)N1 (centres undefined) | inactive: 87.7 µM
41 | Cc1ccc(Nc2nc3ccccc3nc2NS(=O)(=O)c2ccc(N)cc2)cc1 | inactive: > 100 µM
42 | COc1ccccc1-c1c(C#N)c(N)[nH]c(=S)c1C#N | inactive: 92.3 µM
43 | Clc1ccc(C2C3COc4ccccc4C3=NN2c2ccccc2)cc1 (centres undefined) | inactive: > 100 µM
44 | NC1=NCN(C2OC(CO)C(O)C2O)C(=O)N1 (centres undefined) | inactive: 11.1 µM

Row | Compound | GI50
45 | Nc1nc(N)c2ncn(Cc3c(Cl)cccc3Cl)c2n1 | inactive: > 100 µM
46 | COc1cc(C2c3cc4c(cc3[C@@H](Nc3ccc(N5CCOCC5)cc3)C3COC(=O)[C@H]23)OCO4)cc(OC)c1O (some centres undefined) | inactive: 4.32 µM
47 | CC(C(O)Cc1ccccc1)N(C)/N=N/c1ccc([N+](=O)[O-])cc1 (centres undefined) | inactive: 27.7 µM
48 | O=C(COc1ccc(OCC(=O)N2C(=O)CC(=O)N(c3ccc(Cl)cc3)C2=S)cc1)N1C(=O)CC(=O)N(c2ccc(Cl)cc2)C1=S | inactive: 24.9 µM
49 | CC1OC(OC2C(O[C@@H]3C[C@@H]4CC[C@@H]5[C@H](CC[C@]6(C)C7C(C[C@@H]56)O[C@]5(CC[C@@H](C)CO5)[C@H]7C)[C@@]4(C)C[C@H]3O)OC(CO)C(O)C2O)C(O)C(O)C1O (some centres undefined) | inactive: 1.75 µM
50 | COc1ccc(C23c4ccc(OC)cc4CC2(c2ccc([N+](=O)[O-])cc2)Cc2cc(OC)ccc23)cc1 (centres undefined) | inactive: > 36.1 µM
51 | N=C(N)NCCCC(NC(=O)OCCCCCn1ccc(N)nc1=O)C(=O)O (centres undefined) | inactive: > 100 µM
52 | CC(=O)Oc1cc2c(c3ncccc13)OC(C)(C)C2 | inactive: 13.3 µM
53 | CC1=CC(=O)/C(=C/NC(=S)Nc2ccc(S(N)(=O)=O)cc2)C(=O)O1 | inactive: > 100 µM
54 | CCC(C)COC(=O)c1ccc(/N=C\c2ccc(/C=N/c3ccc(C(=O)OCC(C)CC)cc3)cc2)cc1 (centres undefined) | inactive: > 100 µM
55 | CN(C)C(=S)/N=c1\ssc(=S)n1Cc1ccccn1 | inactive: > 22.5 µM
56 | CC(C)(CO)CNc1cc(Cl)nc(N)n1 | inactive: > 100 µM
57 | Cn1c(=N)n[n+]([O-])c2ccccc21 | inactive: 12.7 µM
58 | CO[C@@H](C(=O)OC1C=CC2(CC1)C(=O)N(C)c1ccccc12)c1ccccc1 (some centres undefined) | inactive: > 100 µM
59 | COc1cc2cc3c4c(cc(OC)c(OC)c4c2cc1OC)CCN3C(=O)CCCC(=O)O | inactive: > 100 µM
60 | Cc1nnc(SCc2nc(C#N)c(C#N)nc2CSc2nnc(C)s2)s1 | inactive: 56.1 µM
61 | CC(=O)NC1C(OCc2ccccc2)OC(CO)C(O)C1OCC(=O)N1CCCC1C(=O)N[C@@H](CCC(=O)NCCNCCNc1c2ccccc2nc2cccc([N+](=O)[O-])c12)C(N)=O (some centres undefined) | inactive: 7.89 µM
62 | C#CCNC(=O)N(CC#C)N=O | inactive: > 100 µM
63 | S=c1sc2c(n1-c1ccccc1)N=CNC2S (centres undefined) | inactive: > 100 µM
64 | Cc1ccc(S(=O)(=O)Nn2c(O)c(C#N)c(-c3ccc([N+](=O)[O-])cc3)c(C#N)c2=O)cc1 | inactive: > 100 µM
